Measured values as given in PubChem BioAssay AID624296 (National Center for Advancing Translational Sciences (NCATS), 2012).
Screen size: about 350,000 compounds; about 9,900 (2.8%) were called active. This list was built around the results that the source calls inconclusive (neither active nor inactive); the mix of calls is not that of the screen. The call rests on the fitted dose curve; in most records, active means well fitted activation curve with a large enough effect; inconclusive means small, poorly fitted or top-dose-only effect; inactive means no such curve, though single readings can be large or run the other way. No potency is given beside an inconclusive call; the fits are too rough.

Experiment: A quantitative high throughput screen for small molecules that induce DNA re-replication in MCF 10a normal breast cells. Further: nearly all actives have a fitted effect of over 50% in size. On activity, positive = re-replication: % of control where 0% means no effect.
Details: MCF 10A DNA re-replication, Hoechst nuclear intensity, 48 h; activity, positive = re-replication: at 46.1 µM (top of the series)
Potency means the concentration at half of the fitted maximal effect; tags describe the fitted curve by direction and shape.

Compound	activity, positive = re-replication	Potency
CC(C)(C)N1C(=O)[C@H]2[C@@H](c3ccc(Br)cc3)N3C(=O)N(c4ccc(Br)cc4)C(=O)[C@@]3(Cc3ccccc3)[C@H]2C1=O	inactive: -68%	–
Cc1cc(C)nc(NC(=S)Nc2cccc(Cl)c2Cl)c1	–	inconclusive [activator, full curve, poor fit]
COc1cc(OC)c(NC(=O)CN(C)S(=O)(=O)c2ccc(-c3ccc(=O)[nH]n3)s2)cc1Cl	inactive: -0.709%	–
COc1ccc2c(c1)CCCN2S(=O)(=O)c1ccc(Cl)cc1	–	inconclusive [activator, single point]
Cc1ccc(C(=O)OCn2ncc(Cl)c(Cl)c2=O)cc1	–	active: 3.66 µM
Cc1ccc(C)c(NS(=O)(=O)c2ccccc2C)c1	–	inconclusive [activator, single point]
CCOC(=O)c1oc2ccccc2c1NC(=O)c1cccc(OC)c1	–	inconclusive [activator, partial curve]
CSc1nc(-c2ccccc2)ccc1C(N)=O	–	inconclusive [activator, single point]
O=C(COC(=O)CNC(=O)C1CCCCC1)Nc1cc(C(F)(F)F)ccc1Cl	–	inconclusive [activator, partial curve, poor fit]
CCC(c1nnc(SCC(=O)NCCc2ccc(OC)c(OC)c2)n1Cc1ccccc1)N(C)C (centres undefined)	–	active: 0.651 µM
CC(OC(=O)C1CC1C)C(=O)Nc1ncc(Cl)cc1Cl (centres undefined)	–	inconclusive [activator, partial curve, poor fit]
Oc1cc2c(c(Cl)c1O)CCNCC2c1ccccc1 (centres undefined)	–	inconclusive [activator, single point]
Cc1cc2ccccn2c1C(=O)c1ccccc1Br	–	inconclusive [activator, single point]
CCCCCCn1c(-c2cccs2)n[nH]c1=S	inactive: 2.7%	–
CN1C(C(=O)NCc2ccccc2)CC2Cn3c(nc4cc5ccccc5cc43)C21 (centres undefined)	–	inconclusive [activator, partial curve, poor fit]
O=C1NC(=Nc2ccc(Cl)cc2)SC1Cc1cc(Cl)ccc1Cl (centres undefined)	–	inconclusive [activator, partial curve]
O=C(CN1CCN(Cc2ccccc2)CC1)Nc1cccc(Br)c1	inactive: 23.1%	–
COc1ccc(C(=O)Nc2nc(-c3ccc([N+](=O)[O-])cc3)c(-c3ccccc3)s2)cc1	–	inconclusive [activator, full curve, poor fit]
O=C(CSc1nc(=O)n(CCN2CCOCC2)c2c1CCCC2)Nc1cccc([N+](=O)[O-])c1	inactive: -9.41%	–
